# Measurements: article PMC10201506 (Signal Transduction and Targeted Therapy, 2023)
# Like-named read-outs stand apart in the source and are kept apart here.
# Key:
# Type in all cases: biochemical
# Cathepsin L = Cathepsin L (Homo sapiens, UniProt P07711); assay: Cathepsin L enzymatic assay
# Cathepsin B = Cathepsin B (Homo sapiens, UniProt P07858); assay: Cathepsin B enzymatic assay
# Calpain I = biological target: T1, Calpain I (Homo sapiens, UniProt P07384); assay: Calpain I enzymatic assay
# T1 construct: purchased abcam ab91019
# T1 sequence (P07384 1-714): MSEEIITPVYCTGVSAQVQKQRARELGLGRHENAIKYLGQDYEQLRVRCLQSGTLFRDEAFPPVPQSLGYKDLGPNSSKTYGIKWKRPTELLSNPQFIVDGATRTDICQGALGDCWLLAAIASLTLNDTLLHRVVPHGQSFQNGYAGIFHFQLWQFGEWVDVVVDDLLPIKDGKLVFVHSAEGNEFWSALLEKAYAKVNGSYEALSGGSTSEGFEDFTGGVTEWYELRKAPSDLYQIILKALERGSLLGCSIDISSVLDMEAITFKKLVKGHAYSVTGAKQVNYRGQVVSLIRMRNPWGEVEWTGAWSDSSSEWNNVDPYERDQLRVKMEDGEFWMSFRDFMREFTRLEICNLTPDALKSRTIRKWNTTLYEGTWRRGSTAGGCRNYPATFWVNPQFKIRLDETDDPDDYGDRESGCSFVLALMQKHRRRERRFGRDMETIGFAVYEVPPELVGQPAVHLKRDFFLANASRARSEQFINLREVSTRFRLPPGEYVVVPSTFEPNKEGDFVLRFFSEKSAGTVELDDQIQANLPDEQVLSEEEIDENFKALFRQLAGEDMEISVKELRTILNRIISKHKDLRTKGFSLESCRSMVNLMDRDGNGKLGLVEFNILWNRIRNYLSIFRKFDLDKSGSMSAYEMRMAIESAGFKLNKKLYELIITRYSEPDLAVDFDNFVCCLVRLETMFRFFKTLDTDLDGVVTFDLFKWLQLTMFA
# T1 sequence (P04632 1-268 partner): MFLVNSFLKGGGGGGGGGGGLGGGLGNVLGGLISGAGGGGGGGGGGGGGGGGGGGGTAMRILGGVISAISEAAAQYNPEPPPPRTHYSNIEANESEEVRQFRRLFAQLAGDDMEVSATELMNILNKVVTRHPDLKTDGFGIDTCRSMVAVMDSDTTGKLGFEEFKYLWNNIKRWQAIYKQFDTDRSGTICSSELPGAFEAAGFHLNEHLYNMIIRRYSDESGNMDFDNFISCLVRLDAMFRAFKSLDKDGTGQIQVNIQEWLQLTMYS
structure (smiles),measurement,setting,value
CC(C)C[C@H](NC(=O)OCc1ccccc1)C(=O)N[C@@H](CC1CCNC1=O)C(O)S(=O)(=O)O (stereo partly drawn) [GC-376],IC50,Cathepsin L; read-out: IC50 Cathepsin L/cysteine,0.002 µM
same,IC50,Cathepsin B; read-out: IC50 Cathepsin B/cysteine,0.09 µM
"O=C(c1cc(=O)[nH]c2ccccc12)N1CCN(c2ccc(Cl)c(Cl)c2)CC1CN1CCOCC1 (stereo not drawn) [JZD-07, 4-(4-(3,4-Dichlorophenyl)-2-(morpholinomethyl)piperazine-1-carbonyl)quinolin-2(1H)-one]",IC50,Cathepsin L,> 100 µM
same,IC50,Calpain I,> 100 µM
same,IC50,Cathepsin B,> 100 µM
CC(C)(C)[C@H](NC(=O)C(F)(F)F)C(=O)N1C[C@H]2[C@@H]([C@H]1C(=O)N[C@H](C#N)C[C@@H]1CCNC1=O)C2(C)C [PF-07321332],IC50,Calpain I; read-out: IC50 Calpain 1/cysteine,> 100 µM
